Inconclusive means that the source gave no clear call. Such entries were picked first, then a sample of the others. Potencies beside an inconclusive call are fits to weak or partial responses and may not hold up. “Side channel” marks fits to a control or component signal instead of the main read-out. Active and inactive are the calls of the source. The call rests on the fitted dose curve; in most records, active means well fitted activation curve with a large enough effect in the signal ratio, with a control signal flat (not every such curve was filed as active); inconclusive means small, poorly fitted or top-dose-only effect, or effect the other way, or a change in a side signal; inactive means flat fitted curve, though single readings scatter; the % refers to the signal ratio.
Assay: qHTS Assay for Identification of Small Molecule Agonists for Hypoxia Response Element Signaling Pathway (AID 914); on activation: top concentration of the series differs between compounds; % of control where 0% means no effect
Settings: ME-180 (cervical carcinoma) HRE-bla reporter, beta-lactamase ratio, CoCl2, 17 h; activation: stronger effect = higher value
Text: NIH Molecular Libraries Screening Centers Network [MLSCN]
NIH Chemical Genomics Center [NCGC]
Hypoxia-inducible factor-1 (HIF-1) is the major hypoxia-regulated transcription factor that controls cellular responses to low oxygen concentration. HIF-1 is composed of two subunits: hypoxia responsive HIF-1 alpha and constitutively expressed HIF-1 beta, which is also known as aryl hydrocarbon receptor nuclear translocator. During hypoxic conditions, HIF-1 alpha heterodimerizes with HIF-1 beta and translocates into the nucleus where the HIF-1 complex binds to the hypoxia-response element (HRE) and activates expression of target genes such as VEGF (vascular endothelial growth factor). HIF-1 alpha protein levels are elevated in many solid tumors, including those of the cervix and brain. Within tumors, cells that are the greatest distance from blood vessels and therefore the most hypoxic express the highest levels of HIF-1 alpha. Therapeutic blockade of the HIF-1 signaling pathway in cancer cells therefore provides an attractive strategy for development of anticancer drugs.
Using a beta-lactamase reporter-gene under control of the hypoxia response element, a cell-based assay [CellSensor(TM) HRE-bla ME-180 developed by Invitrogen Corp.] was used to measure hypoxia-induced signaling. Library compounds were measured for their ability to positively modulate the action of EC50 CoCl2 on reporter gene activity. Compounds were screened in a titration series in 1536-well format. Positive modulators were identified based on the AC50 values derived from the screening data.
NCGC Assay Protocol Summary:
2500 cells/5uL in Opti-MEM medium containing 0.5% dialyzed FBS, 0.1 mM NEAA, 1 mM sodium pyruvate and 10 mM HEPES was dispensed into 1536-well plates and cells were cultured at 37 degrees Celsius overnight. Next day 23 nL of compounds or DMSO were delivered to each well using a pin tool, and 1uL of EC50 level of CoCl2, or EC100 level of CoCl2, or assay medium was added. And then the plates were incubated at 37 degrees Celsius for 17 hours. 1 uL of CCF4-dye mixture was added to each well. After incubated at room temperature for 2.5 hours the plates were measured on an EnVision plate reader at Excitation 405nm, Emission1=460nm and Emission 2=530nm. The %Activity was determined from the ratio of 460nm/530nm.
Potency means the concentration at half of the fitted maximal effect; tags describe the fitted curve by direction and shape or compound fluorescence and quenching.

Row | Compound | Potency | activation
1 | COc1cc([C@@H]2c3cc4c(cc3[C@H](O)[C@H]3COC(=O)[C@H]23)OCO4)cc(OC)c1OC | inconclusive: 0.0158 µM [inhibitor, full curve] | 
2 | C[C@H](Br)CN(C[C@H](C)Br)c1ccc2c(c1)Cc1ccccc1-2 |  | inconclusive: -17.2%
3 | Clc1ccc([C@@H](OCCN2CCCCC2)c2ccccc2)cc1 | inconclusive: 10 µM [activator, partial curve, poor fit] | 
4 | CC[C@@H](CO)Nc1nc(NCc2ccccc2)c2ncn(C(C)C)c2n1 | inconclusive: 31.6 µM [inhibitor, single point] | 
5 | Clc1ccc(COC(Cn2ccnc2)c2ccc(Cl)cc2Cl)c(Cl)c1 (stereo not given) | inconclusive: 5.01 µM [cytotoxic, side channel, partial curve] | inconclusive: 69.4%
6 | C[C@H](N)CN1CCc2ccc(Br)cc21 | inconclusive: 5.01 µM [inhibitor, full curve, poor fit] | 
7 | Oc1cc2c(cc1O)[C@H]1c3ccccc3CN[C@@H]1CC2 | inconclusive: 5.01 µM [inhibitor, full curve] | 
8 | CN1[C@@H](C[C@@H](O)c2ccccc2)CCC[C@@H]1C[C@H](O)c1ccccc1 | inconclusive: 5.01 µM [inhibitor, partial curve, poor fit] | 
9 | CC[C@@H]1CN2CCc3cc(OC)c(OC)cc3[C@H]2C[C@@H]1C[C@@H]1NCCc2cc(O)c(OC)cc21 | inconclusive: 0.0501 µM [inhibitor, full curve] | 
10 | CCOC(=O)c1ncn2c1[C@H]1CCCN1C(=O)c1cc(OC)ccc1-2 | inconclusive: 10 µM [inhibitor, full curve] | 
11 | CN1[C@@H]2CC[C@H]1CC(O[C@@H](c1ccccc1)c1ccc(Cl)cc1)C2 (stereo not given in full) |  | inactive: -9.36%
12 | COC(=O)C(O)(c1ccc(NC(=O)c2ccco2)c(OC)c1)C(F)(F)F (stereo not given) | inconclusive: 12.6 µM [inhibitor, single point] | 
13 | C[N+](C)(C)CCOC(=O)CBr |  | inactive: 16.2%
14 | O=C(O)CN1CCN(CC(=O)O)CC(=O)[O][Hg][O]C(=O)C1 |  | inconclusive: 28.3%
15 | CC(=O)[C@@]1(O)CC[C@H]2[C@@H]3C[C@H](C)C4=CC(=O)CC[C@]4(C)[C@H]3CC[C@@]21C | inconclusive: 0.0794 µM [inhibitor, full curve] | 
16 | COc1ccc(-n2nc(C(F)(F)F)cc2-c2ccc(Cl)cc2)cc1 | inconclusive: 5.01 µM [activator, partial curve] | 
17 | Cc1o[nH]c(=O)c1C[C@H](N)C(=O)O |  | inactive: 7.13%
18 | O=c1ccc2cc(O[C@H]3O[C@@H](CO)[C@@H](O)[C@@H](O)[C@@H]3O)c(O)cc2o1 |  | inconclusive: 397%
19 | Cc1c([C@@H](C)[C@H]2NC[C@H](C)C[C@@H]2O)ccc2c1C[C@@H]1[C@H]2CC=C2C[C@@H](O)CC[C@@]21C |  | inactive: 4.43%
20 | O=C(Nc1ccccc1)N1CC2(CCN(C(=O)Oc3ccccc3)CC2)C1 |  | inactive: -6.7%

Row | Compound | Potency | activation
21 | Nc1ccc(CCN2CCN(c3cccc(C(F)(F)F)c3)CC2)cc1 |  | inactive: -27.7%
22 | CC1(C)[C@@H]2CC[C@]1(C)CN(CCC[N+](C)(C)C)C2 | inconclusive: 1 µM [inhibitor, single point] | 
23 | NNCc1cccc(O)c1 |  | inactive: 15.1%
24 | O=C(Oc1ccccc1)N1CCC2(CC1)CN(C(c1ccccc1)c1ccccc1)C2 | inconclusive: 3.16 µM [activator, single point] | 
25 | C[C@H](N)[C@@H](O)c1ccccc1 | inconclusive: 6.31 µM [inhibitor, partial curve, poor fit] | 
26 | CN1CCCC2(CCN(C(=O)c3ccco3)CC2)C1 |  | inactive: -1.89%
27 | COC1=C(C)C(=O)c2c(c(COC(N)=O)c3n2C[C@@H]2[C@@H]3N2C)C1=O (stereo not given in full) | inconclusive: 3.16 µM [cytotoxic, side channel, single point] | 
28 | CN1Cc2c(ccc3c2OCO3)[C@@H]2[C@@H](O)Cc3cc4c(cc3[C@@H]21)OCO4 | inconclusive: 2.51 µM [inhibitor, full curve, poor fit] | 
29 | c1ccc(-c2ccc(C(c3ccccc3)n3ccnc3)cc2)cc1 (stereo not given) | inconclusive: 1.26 µM [inhibitor, partial curve] | 
30 | S=C(S)N1CCCC1 | inconclusive: 20 µM [inhibitor, single point] | 
31 | COc1ccc(NC(=O)N2CC3(CCN(C(=O)Oc4ccccc4)CC3)C2)cc1 |  | inconclusive: -31.6%
32 | CCN(CC)CCCNC(=O)c1c(O)c2ccccc2n(Cc2ccccc2)c1=O |  | inconclusive: -79.9%
33 | CC(C)[C@H]1C(=O)N2CCC[C@H]2[C@]2(O)O[C@](NC(=O)[C@@H]3C=C4c5cccc6[nH]cc(c56)C[C@H]4N(C)C3)(C(C)C)C(=O)N12 | inconclusive: 0.398 µM [inhibitor, partial curve] | 
34 | NCCCP(=O)(O)O |  | inactive: -8.81%
35 | CCOc1ccc(-n2c(O)c(C=NCCN3CCNCC3)c(=O)[nH]c2=O)cc1 |  | inconclusive: 9.81%
36 | CSC([N-]/N=C/c1cccc(C)n1)=[S]=[Cu].CS[C@H]([S-])[N-]/N=C/c1cccc(C)n1 | inconclusive: 0.251 µM [inhibitor, partial curve] | 
37 | NC(=O)COc1c(F)cc(SCCNS(=O)(=O)c2ccccc2)cc1F | inconclusive: 25.1 µM [inhibitor, single point] | 
38 | O=C(N1CCOCC1)C1(c2ccccc2)CCNCC1 |  | inconclusive: 13.5%
39 | CN[C@H]1[C@H](C)O[C@@H](O[C@@H]2C/C=C(/C)C/C(C)=C\C=C/CC[C@@H](C)CNC(=O)/C=C\C=C/[C@H]2C)C[C@@H]1O |  | inconclusive: -0.233%

From PubChem BioAssay (NCATS)
